Some of the results follow.

These results are taken from the supplement of paper PMC8728848.

Holding throughout (experiment): glycan array binding signal (z-score within array); higher = stronger binding
Common to all, as to details: glycan notation: IUPAC condensed, linker removed

Assay [1] concerns the target Gal(b1-4)GlcNAc(b1-3)Gal(b1-4)GlcNAc. In outline:
(§1)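 Glycan array binding is given as a within-array Z-score, which can be read as non-binding when negative. The arrays, 3228 of them, came from the Consortium for Functional Glycomics database and were retained only where the protein sequence was available. Z-scores were averaged across arrays of the same protein sequence at different concentrations or buffers and across linkers.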

Assay [2] deals with Gal(b1-4)GlcNAc(b1-3)Gal(b1-4)GlcNAc(b1-2)Man(a1-3)[Gal(b1-4)GlcNAc(b1-3)Gal(b1-4)GlcNAc(b1-2)Man(a1-6)]Man(b1-4)GlcNAc(b1-4)GlcNAc. In outline:
as §1

Assay [3] has as its target Gal(b1-4)GlcNAc(b1-3)Gal(b1-4)GlcNAc(b1-2)Man(a1-3)[Gal(b1-4)GlcNAc(b1-3)Gal(b1-4)GlcNAc(b1-2)Man(a1-6)]Man(b1-4)GlcNAc(b1-4)[Fuc(a1-6)]GlcNAc. An outline of the steps: as §1
Assay [4] deals with Gal(b1-4)GlcNAc(b1-3)Gal(b1-4)GlcNAc(b1-2)[Gal(b1-4)GlcNAc(b1-3)Gal(b1-4)GlcNAc(b1-6)]Man(a1-6)[Gal(b1-4)GlcNAc(b1-3)Gal(b1-4)GlcNAc(b1-2)Man(a1-3)]Man(b1-4)GlcNAc(b1-4)GlcNAc. In outline: as §1
The target in assay [5] is Gal(b1-4)GlcNAc(b1-3)Gal(b1-4)GlcNAc(b1-2)[Gal(b1-4)GlcNAc(b1-3)Gal(b1-4)GlcNAc(b1-6)]Man(a1-6)[Gal(b1-4)GlcNAc(b1-3)Gal(b1-4)GlcNAc(b1-2)Man(a1-3)]Man(b1-4)GlcNAc(b1-4)[Fuc(a1-6)]GlcNAc. In outline:
as §1

The target of assay [6] is Gal(b1-4)GlcNAc(b1-3)Gal(b1-4)GlcNAc(b1-3)Gal(b1-4)GlcNAc. In outline: as §1
Assay [7] has as its target Gal(b1-4)GlcNAc(b1-3)Gal(b1-4)GlcNAc(b1-3)Gal(b1-4)GlcNAc(b1-2)Man(a1-3)[Gal(b1-4)GlcNAc(b1-3)Gal(b1-4)GlcNAc(b1-3)Gal(b1-4)GlcNAc(b1-2)Man(a1-6)]Man(b1-4)GlcNAc(b1-4)GlcNAc. In outline:
as §1

The target in assay [8] is Gal(b1-4)GlcNAc(b1-3)Gal(b1-4)GlcNAc(b1-3)Gal(b1-4)GlcNAc(b1-2)Man(a1-3)[Gal(b1-4)GlcNAc(b1-3)Gal(b1-4)GlcNAc(b1-3)Gal(b1-4)GlcNAc(b1-2)Man(a1-6)]Man(b1-4)GlcNAc(b1-4)[Fuc(a1-6)]GlcNAc. In outline: as §1
In assay [9] the target is Gal(b1-4)GlcNAc(b1-3)Gal(b1-4)GlcNAc(b1-3)Gal(b1-4)GlcNAc(b1-2)[Gal(b1-4)GlcNAc(b1-3)Gal(b1-4)GlcNAc(b1-3)Gal(b1-4)GlcNAc(b1-6)]Man(a1-6)[Gal(b1-4)GlcNAc(b1-3)Gal(b1-4)GlcNAc(b1-3)Gal(b1-4)GlcNAc(b1-2)Man(a1-3)]Man(b1-4)GlcNAc(b1-4)[Fuc(a1-6)]GlcNAc. In outline: as §1
Assay [10] addresses Gal(b1-4)GlcNAc(b1-3)Gal(b1-4)GlcNAc(b1-3)Gal(b1-4)GlcNAc(b1-3)Gal(b1-4)GlcNAc(b1-2)Man(a1-3)[Gal(b1-4)GlcNAc(b1-3)Gal(b1-4)GlcNAc(b1-3)Gal(b1-4)GlcNAc(b1-3)Gal(b1-4)GlcNAc(b1-2)Man(a1-6)]Man(b1-4)GlcNAc(b1-4)GlcNAc. An outline of the steps:
as §1

In assay [11] the target is Gal(b1-4)GlcNAc(b1-3)Gal(b1-4)GlcNAc(b1-3)Gal(b1-4)GlcNAc(b1-3)Gal(b1-4)GlcNAc(b1-2)Man(a1-3)[Gal(b1-4)GlcNAc(b1-3)Gal(b1-4)GlcNAc(b1-3)Gal(b1-4)GlcNAc(b1-3)Gal(b1-4)GlcNAc(b1-2)Man(a1-6)]Man(b1-4)GlcNAc(b1-4)[Fuc(a1-6)]GlcNAc. An outline of the steps:
as §1

The target of assay [12] is Gal(b1-4)GlcNAc(b1-3)Gal(b1-4)GlcNAc(b1-3)Gal(b1-4)GlcNAc(b1-3)Gal(b1-4)GlcNAc(b1-2)[Gal(b1-4)GlcNAc(b1-3)Gal(b1-4)GlcNAc(b1-3)Gal(b1-4)GlcNAc(b1-3)Gal(b1-4)GlcNAc(b1-6)]Man(a1-6)[Gal(b1-4)GlcNAc(b1-3)Gal(b1-4)GlcNAc(b1-3)Gal(b1-4)GlcNAc(b1-3)Gal(b1-4)GlcNAc(b1-2)Man(a1-3)]Man(b1-4)GlcNAc(b1-4)[Fuc(a1-6)]GlcNAc. An outline of the steps:
as §1

For assay [13], the target named is Gal(b1-4)GlcNAc(b1-3)Gal(b1-4)GlcNAc(b1-3)Gal(b1-4)GlcNAc(b1-3)Gal(b1-4)GlcNAc(b1-3)Gal(b1-4)GlcNAc(b1-2)Man(a1-3)[Gal(b1-4)GlcNAc(b1-3)Gal(b1-4)GlcNAc(b1-3)Gal(b1-4)GlcNAc(b1-3)Gal(b1-4)GlcNAc(b1-3)Gal(b1-4)GlcNAc(b1-2)Man(a1-6)]Man(b1-4)GlcNAc(b1-4)GlcNAc. In outline: as §1
Assay [14] concerns the target Gal(b1-4)GlcNAc(b1-3)Gal(b1-4)GlcNAc(b1-3)Gal(b1-4)GlcNAc(b1-3)Gal(b1-4)GlcNAc(b1-3)Gal(b1-4)GlcNAc(b1-2)Man(a1-3)[Gal(b1-4)GlcNAc(b1-3)Gal(b1-4)GlcNAc(b1-3)Gal(b1-4)GlcNAc(b1-3)Gal(b1-4)GlcNAc(b1-3)Gal(b1-4)GlcNAc(b1-2)Man(a1-6)]Man(b1-4)GlcNAc(b1-4)[Fuc(a1-6)]GlcNAc. In outline: as §1
In assay [15] the target is Gal(b1-4)GlcNAc(b1-3)Gal(b1-4)GlcNAc(b1-3)Gal(b1-4)GlcNAc(b1-3)Gal(b1-4)GlcNAc(b1-3)Gal(b1-4)GlcNAc(b1-2)[Gal(b1-4)GlcNAc(b1-3)Gal(b1-4)GlcNAc(b1-3)Gal(b1-4)GlcNAc(b1-3)Gal(b1-4)GlcNAc(b1-3)Gal(b1-4)GlcNAc(b1-6)]Man(a1-6)[Gal(b1-4)GlcNAc(b1-3)Gal(b1-4)GlcNAc(b1-3)Gal(b1-4)GlcNAc(b1-3)Gal(b1-4)GlcNAc(b1-3)Gal(b1-4)GlcNAc(b1-2)Man(a1-3)]Man(b1-4)GlcNAc(b1-4)[Fuc(a1-6)]GlcNAc. In outline:
as §1

Assay [16] deals with Gal(b1-4)GlcNAc(b1-3)Gal(b1-4)GlcNAc(b1-3)Gal(b1-4)GlcNAc(b1-3)Gal(b1-4)GlcNAc(b1-3)Gal(b1-4)GlcNAc(b1-3)Gal(b1-4)GlcNAc(b1-2)Man(a1-3)[Gal(b1-4)GlcNAc(b1-3)Gal(b1-4)GlcNAc(b1-3)Gal(b1-4)GlcNAc(b1-3)Gal(b1-4)GlcNAc(b1-3)Gal(b1-4)GlcNAc(b1-3)Gal(b1-4)GlcNAc(b1-2)Man(a1-6)]Man(b1-4)GlcNAc(b1-4)GlcNAc. An outline of the steps:
as §1

Assay [17] concerns the target Gal(b1-4)GlcNAc(b1-3)Gal(b1-4)GlcNAc(b1-3)GalNAc. In outline: as §1
Assay [18] deals with Gal(b1-4)GlcNAc(b1-3)Gal(b1-4)GlcNAc(b1-3)[Gal(b1-4)GlcNAc(b1-3)Gal(b1-4)GlcNAc(b1-6)]GalNAc. An outline of the steps:
as §1

For assay [19], the target named is Gal(b1-4)GlcNAc(b1-3)Gal(b1-4)GlcNAc(b1-6)[Gal(b1-3)]GalNAc. In outline:
as §1

B1: CaSRK1 (Capsicum annuum) (protein)
chain: MALCKIFPFAFILLSCSCYLISGQRFDYPTANLSTTWINSVSAPHSIDYTDGSRIRAILLRGTFGPRYACGFYCNGNCESYLFAIFIVQTNSASQITSPAIGFPQVVWSANRNNPVKINSTLQLTAEGDLVLRDADGTLAWSTNTAGKSVAGLSLTDEGNLALFDSKNATVWQSFDHPTDALVPGQKLVPGMKLTASVSRTNWTAGGLFALSAIDNGLVAFVESNPPQKYFEASVGGSNTSGGSNYVKYLNGSLTLFTHSADTTELILISITPASSAQYMKLESNGHLKVYEWTSRGWREVDDLLTGFRGECNYPTVCGRYGICTMGQCSCPTSSSSRTYFRPIDVRRPSLGCSEVTKLTCQNTKKHSPLEVEDVDYFAFKAGISDTDLNTCKRACLEKCSCKAAFFRSGLNSSRTRGDCYLPTEIFSIMNNEKDRTRYDSVAFIKVQV
Turning to B1, the “glycan array binding signal (z-score)” value in assay [1] is -0.482; in assay [2] it was 1.99; in assay [3], -0.132; in assay [4], 3.63; in [5] it was 0.3; in [6] it was -0.547. The “glycan array binding signal (z-score)” value in [7] was 0.262; in [8], 0.595; in assay [9], 0.148; in [10], -0.535; in assay [11] it was 0.677; in assay [12] it was -0.328. In addition, the “glycan array binding signal (z-score)” value was -0.244 in assay [13]; -0.453 in assay [14]; -0.339 in [15]; -0.568 in assay [16]; 2.85 in assay [17]; 0.61 in assay [18]. In addition, the “glycan array binding signal (z-score)” value in [19] is 0.804.
